According to the supplement of paper PMC3334620:
Whole data set: some 33,000 sequences, median “E-score (-0.5 to 0.5)” near -0.035, cut for the highest 2% near 0.34. The list shows a part of the results.

biological target: T1, Mot3 (UniProt P54785); experiment: PBM E-score (8-mer binding enrichment) (E-score (-0.5 to 0.5)); higher = stronger / more preferred TF binding; most listed sequences are background and not binding sites; conditions: protein concentration: 200 nM; construct: GST-full length
T1 sequence: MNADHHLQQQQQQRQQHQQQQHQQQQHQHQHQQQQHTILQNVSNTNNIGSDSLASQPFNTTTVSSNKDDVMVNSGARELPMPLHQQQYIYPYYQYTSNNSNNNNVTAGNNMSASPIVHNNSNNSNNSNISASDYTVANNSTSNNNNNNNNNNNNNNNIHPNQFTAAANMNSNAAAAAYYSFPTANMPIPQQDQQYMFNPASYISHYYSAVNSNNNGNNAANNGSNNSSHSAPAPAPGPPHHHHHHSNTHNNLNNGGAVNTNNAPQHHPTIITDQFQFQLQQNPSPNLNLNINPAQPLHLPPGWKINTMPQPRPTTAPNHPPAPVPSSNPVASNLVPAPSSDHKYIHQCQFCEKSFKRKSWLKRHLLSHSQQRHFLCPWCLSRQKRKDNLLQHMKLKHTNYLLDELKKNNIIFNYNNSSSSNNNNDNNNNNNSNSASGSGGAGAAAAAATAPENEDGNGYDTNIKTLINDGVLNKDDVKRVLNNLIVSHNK
Summary of the method: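 Yeast transcription factors carrying a GST tag, as full-length proteins or DNA-binding domains, were produced by PURExpress in vitro transcription/translation. About 100-200 nM protein was applied to universal all-10-mer Agilent arrays, double-stranded by primer extension on fresh or once-stripped slides. Bound protein was detected with fluorescent anti-GST, and scans were normalised with masliner. The Universal PBM Analysis Suite gave each ungapped eight-base word, pooled with its reverse complement, an E-score, a modified Wilcoxon-Mann-Whitney statistic.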

Sequence	PBM E-score
ATCAGTCC	-0.281
GGGTTGAA	-0.104
ACCTGCGT	0.238
GTGGCCAA	-0.264
GGCCTTTA	0.00584
GATGGGGA	-0.318
GAAGTAGC	-0.254
AACCACAT	0.104
GTTGGCAA	0.0926
AAGGTTCG	0.0144
AGATCAAG	0.191
TAGAGTAA	0.112
CAAAGTCC	-0.187
GCCTAACC	0.127
TATGTGAA	0.163
CGGAGAAA	-0.183
CAGCAGAC	-0.148
CCAGGTAC	0.238
AACCTGCC	0.0302
GCACATAA	0.076
CAGCGCCG	-0.367
CCCCTTCG	-0.0557
AACTAATA	0.181
CCAGGTAA	0.238
ACGTATCA	0.0928

Sequence	PBM E-score
CCGTGTCC	0.0332
CCGAGACA	-0.169
CCGTATAC	-0.0578
ATCCGGTG	0.0537
CATGGCCC	-0.0426
AAGCGCTT	0.143
ACTATTCA	-0.0153
CTATAGCC	-0.247
CGGTGCAC	-0.0155
CTTATGTC	0.0522
TAGGTTAA	0.199
CAACCGCC	-0.0661
CGGTTCCC	-0.165
CTCCAGAC	-0.252
GGGACAAA	-0.143
TCCGTTAA	0.0596
ATGTAAAT	0.42
AAATGATA	0.2
TGATAGCA	-0.0602
CTGTCCGC	-0.0944
AGCGGATG	-0.0731
ATACACGG	0.375
GACAACCC	-0.00439
GACTTTCA	-0.155
CACGATCC	0.106

Sequence	PBM E-score
CCGAAGGA	-0.101
CGGCACTC	-0.251
ATTCAGAA	-0.0281
AGAGCTAC	0.105
CTAATTAG	0.0326
AGGGGCCC	-0.107
GCACAAGC	0.117
CGCTTTAA	0.191
AATGTCAC	0.0858
GTCTCTGA	-0.0606
ACATAGCT	0.135
ATTCTGTC	-0.0735
CGAAGGAG	-0.225
ACGAGTCG	-0.132
CGTAACAA	0.152
ATAAACTA	0.0943
TTGACCAA	0.0363
ACATGGCC	0.315
ACAACCTA	0.142
ACAACCGT	0.157
ACTCGAAA	0.0722
ACGTCCGC	-0.162
TACATCTA	0.227
GAGAGACC	-0.23
ACTACGGC	-0.303

Sequence	PBM E-score
CGACGTTA	0.0666
ACTTGACA	0.179
CTCTTTAC	0.177
CAAGCGGC	-0.142
GACGCGGC	-0.0795
CCCGGTCA	-0.32
GCACATGA	0.0863
AGAAAACC	-0.119
GGAATACC	-0.0121
GCTATTAA	0.128
GTTGTCAA	0.157
ATATTGAC	0.0434
AAGCCCCT	-0.195
ACCATTAG	-0.122
GTAATACA	0.329
TCACTTAA	0.0594
GTTCTGGA	0.0443
ACCACCCA	-0.0591
ATGCTCCG	-0.181
AGACTTAC	0.0486
AATTTGGT	0.1
AAGAGTGC	0.0716
ACAAGTAT	0.0968
TCCCGAAA	-0.00587
AGTGGTAT	-0.0695

Sequence	PBM E-score
AATCGCCA	-0.145
TCAAGGAA	0.363
AATGTTTC	-0.00335
ACACAACA	0.307
ACAGGTAA	0.39
AATGGATG	0.0536
TACGAGTA	0.0892
GAGGCTGA	-0.187
ATATCTCA	0.00383
GGCGAGTA	-0.0065
GCCTAAGA	0.138
GAGTCCGA	-0.0983
GTGACTAA	0.0882
ACCCACGA	-0.123
ATCCTTAA	0.00499
GGAGTCTA	-0.273
TCTCCTCA	-0.15
AAGTAAGC	0.082
CCGAGGTC	-0.308
ATCACCCG	-0.262
CGATTGGC	-0.206
GATATAAC	0.0808
GTGGGGGA	-0.17
CTTCCCAA	-0.0311
ATTATTTG	0.172

Sequence	PBM E-score
ACCTTTCG	-0.117
CTCCAGCC	-0.268
CTCGTCCC	-0.222
AGCTTACA	0.162
CTCGTAGA	-0.166
CGATTCCG	-0.278
GAAGTGGA	-0.0275
AAACCAGC	-0.141
GGGAGGAA	-0.11
TAGCGGCA	-0.168
ACTGTGAT	-0.0738
CTCTATAA	0.0464
ATAAGCAC	0.0519
TACTGACA	0.117
CATATAGG	0.0848
ACCGGCGA	-0.293
CTGGGTGC	-0.113
ACATCATC	0.0456
GGCCAATA	-0.0675
AAACTATC	-0.0399
GAAGATGA	-0.127
ACCGTACA	0.0453
AACGACGA	-0.024
GAGAGCTA	0.0726
CTGACTAC	0.0479

Sequence	PBM E-score
ACTAAACG	0.083
GTACGCCA	-0.213
CGGTCTTC	-0.225
GTGATCGA	0.11
TCCGGCGA	-0.153
GACCTCCA	-0.149
CCGGACAA	0.022
AACGCGGC	0.0553
GGAGTATA	-0.0923
ATTGGCCA	-0.218
TGGTGCAA	-0.049
GTCCCTTA	-0.0953
CCCATGAG	-0.314
ATGAATGA	-0.0809
GGAAAGCC	-0.0378
CCTAAATA	0.149
AGCACCTC	-0.0429
ACCCCAAA	-0.215
GGGGCCCA	-0.348
CAAATCAG	-0.048
TACGACGA	-0.0839
GGCTCATA	-0.154
